Read counts are not given, so values of variants with three or more changes are uncertain.
B1: CPEB3 Ribozyme (parent)
chain: UAACAGGGGGCCACAGCAGAAGCGUUCACGUCGCAGCCCCUGUCAGAUUCUGGUGAAUCUGCGAAUUCUGCUGUAUAUCUC

Variants of: B1
Experiment: self-cleavage, relative activity (ratio to wild type); higher = more cleavage; in vitro, sequencing
Procedure, shortened: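 Relative activity was defined as the cleaved/total read fraction for a variant divided by the same fraction for the unmutated ribozyme. CPEB3 self-cleaving ribozyme libraries were made by rounds of error-prone PCR, barcoded, and transcribed in vitro with T7 RNA polymerase for 5 hours at 37°C, and cleavage ran through transcription plus a 15 min DNase I step before EDTA. Illumina sequencing of template-switched reverse transcripts gave the reads, and DNA sequencing mapped the barcodes. Averages come from three batches, using variants with at least 5 reads.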

Variant	self-cleavage
UAACAGGGGGCCACGGCAGAAGCGUUCACGUCGCAGCCCCUGUCAGGUUCUGGUGUAUCUGCGAAUUCCGCUGUAUAUCUC	0.23
UAACAGGGGGCCACGGCAGAAGCGUUCACGUCGCAGCCCCUGUCGGAUUCUGGUGAAUCUGCGGAUCCUGCUGCAUAUCUC	0.17
UAACAGGGGGCCACGGCAGAAGCGUUCACGUCGCUGCCCCCGUCAGAUUCUGGUGAAUCUGCGAAUUCAGCUGUAUAUCUC	0.25
UAACAGGGGGCCACGGCAGAAGCGUUCACGUCGCAGCCCCUGUCUGGUUCUGGUGAAUCUGCGGAUUCCGCUGUAUAUCAC	0.07
UAACAGGGGGCCACGGCAGAAGCGUUCACGUCGCAGCCCCUGUCAGGUUCUGGUGAAUCUGCGAAUCCUGCUGUAUAUCUC	0.23
UAACAGGGGGCCACGGCAGAAGCGUUCACGUCGCUGCCCCCGUCAGAUUCUGGUGAAUCUGCGAAUUCUGCUGUAUAUCUC	0.46
UAACAGGGGGCCACGGCAGAAGCGUUCACGUCGCAGCCCCUGUCAGGUUCUGGUGAAUCUGCGAAUCCUGCAGUAUAUCUC	0.12
UAACAGGGGGCCACGGCAGAAGCGUUCACGUCGCAGCCCCUGUCAGGUUCUGGUGUAUCUGCGAAUACUGCUGUUUAUCUC	0.17
UAACAGGGGGCCACGGCAGAAGCGUUCACGUCGCUGCCCCCGUCCGAUUCUGGUGAAUCUGCGAAUUCUGCUGUAUAUCUC	0.17
UAACAGGGGGCCACGGCAGAAGCGUUCACGUCGCUGCCCCUGUCAGAUUCUGGUGAAUCUGCGAAUUCUGCUGUAAAUCUC	0.61
UAACAGGGGGCCACGGCAGAAGCGUUCACGUCGCAGCCCCUGUCGGAUUCUGGUGAAUCUGUGAAUUCUGCUGUAUAUCCC	0.28
UAACAGGGGGCCACGGCAGAAGCGUUCACGUCGCAGCCCCUGUCAGGUUCUGGUGUAUCUGCGAAUUCUGCUGAAUAUCUC	0.46
UAACAGGGGGCCACGGCAGAAGCGUUCACGUCGCAGCCCCUGUCGGAUUCUGGUGAAUCUGCGUAUUCUGCUGUAUAUCUC	0.36
UAACAGGGGGCCACGGCAGAAGCGUUCACGUCGCAGCCCCUGUCAGCUACUGGUGAAUCUGCGAAUUCUGCUGUAUAUCAC	0.16
UAACAGGGGGCCACGGCAGAAGCGUUCACGUCGCAGCCCCUGUCAGCUUCUGGUGAGUCUGCGAAUUCUGCUGUAUAUCCC	0.28
UAACAGGGGGCCACGGCAGAAGCGUUCACGUCGCGGCCCCUGUCAGAUUCUGGUGAAUCUGCGAAUUCUGCCGUAUAUCUC	1.06
UAACAGGGGGCCACGGCAGAAGCGUUCACGUCGCGGCCCCUGUCAGAUUCUGGUGAAUCUGCGAAUUCUGCAGUAUAUCUC	0.41
UAACAGGGGGCCACGGCAGAAGCGUUCACGUCGCGGCCCCUGUCAGAUUCUGGUGAAUCUGCGAAUUCUGCUGUAUAACUC	0.74
UAACAGGGGGCCACGGCAGAAGCGUUCACGUCGCAGCCCCUGUCUGAAUCUGGUGAAUCUGCGAAUUCUGCUGUAUAUCUC	0.11
UAACAGGGGGCCACGGCAGAAGCGUUCACGUCGCUGCCCCUGUCAGACUCUGGUGAAUCUGCGAAUCGUGCUGUAUAUCUC	0.16
UAACAGGGGGCCACGGCAGAAGCGUUCACGUCGCAGCCCCUGUCGGAUUCCGGUGAAUCUGCGAAUUCUGCUGUAUAUCUC	0.4
UAACAGGGGGCCACGGCAGAAGCGUUCACGUCGCAGCCCCUGUCGGAUUCAGGUGAAUCUGCGAAUUCUGCUGUAUAUCUC	0.76
UAACAGGGGGCCACGGCAGAAGCGUUCACGUCGCAGCCCCUGUCAGGUUCUGGUGAAUCAGCGAAUUCUGCUGUAUACCUC	0.16

Variant	self-cleavage
UAACAGGGGGCCACGGCAGAAGCGUUCACGUCGCUGCCCCUGUCAGUUUCUGGUGAAUCUGCGAAUUCUGCUGUAUAUCUC	0.17
UAACAGGGGGCCACGGCAGAAGCGUUCACGUCGCAGCCCCUGUCAGGUCCUGGUGAAUCCGCUAAUUCUGCUGUAUAUCUC	0.18
UAACAGGGGGCCACGGCAGAAGCGUUCACGUCGCAGCCCCUGUCAGGUUCUGGUGAAUCUGCGAAUUCUGCUGUAUAUCCC	1.07
UAACAGGGGGCCACGGCAGAAGCGUUCACGUCGCAGCCCCUGUCAGGUUCUGGUGAAUCUGCGAACUCUGCUGUAUAUCUC	0.28
UAACAGGGGGCCACGGCAGAAGCGUUCACGUCGCAGCCCCUGUCUGAUUCUGGUGAAUCAGCGAAUUCUGCCGUAUAUCUC	0.32
UAACAGGGGGCCACGGCAGAAGCGUUCACGUCGCUGCCACUGUCAGACUCUGGUGAAUCUGCGAAUUCUGCAGUAUAUCUC	0.06
UAACAGGGGGCCACGGCAGAAGCGUUCACGUCGCUGCCCCCGUCUGGUUCUGGUGAAUCUGCGAAUUCUGCAGUAUAUCUC	0
UAACAGGGGGCCACGGCAGAAGCGUUCACGUCGCAGCCCCUGUCGGAUUCUGGUGAGUCAGCGAAUCCUGCUGUAUAUCUC	0.24
UAACAGGGGGCCACGGCAGAAGCGUUCACGUCGCAGCCCCUGUCUGAUUCUGGUGAGUCUGCGAGUUCUGCUGUAUAUCUC	0.18
UAACAGGGGGCCACGGCAGAAGCGUUCACGUCGCUGCCCCCGCCAGAUUCUGGUGAAUCUGCGAAUUCUGCUGUAUAUCUC	0.07
UAACAGGGGGCCACGGCAGAAGCGUUCACGUCGCAGCCCCUGUCAGGUUCUGGUGAAACUGCGAAUUCUGCAGUAUAUCUC	0.16
UAACAGGGGGCCACGGCAGAAGCGUUCACGUCGCAGCCCCUGUCGGAUUCUGGUGAACCUGCGAAUUCUGCUGUAUAACUC	0.41
UAACAGGGGGCCACGGCAGAAGCGUUCACGUCGCAGCCCCUGUCGGUUUCUAGUGAAUCUGCGAAUUCUGCUGUAUAUCCC	0.33
UAACAGGGGGCCACGGCAGAAGCGUUCACGUCGCAGCCCCUGUCGGAUUCUGGUGAGUCUGCGAAUUCUGCUGUAUAUCUC	0.42
UAACAGGGGGCCACGGCAGAAGCGUUCACGUCGCAGCCCCUGUCGGAUUCCGGCGAAUCUGCGGAUUCUGCUGAAUAUCUC	0.16
UAACAGGGGGCCACGGCAGAAGCGUUCACGUCGCUGCCACUGUCAGAUUCUGGUGAAUCCGCGAAUACUGCUGUAUAUCGC	0.04
UAACAGGGGGCCACGGCAGAAGCGUUCACGUCGCAGCCCCUGUCAGCUUCUGGUGAAUCUGCGAAUACUGCUGUAUAUCUC	0.14
UAACAGGGGGCCACGGCAGAAGCGUUCACGUCGCGGCCCCUGUCAGAUUCUGGUGAAUCUGCGAACUCUGCUGCAUAUCUC	0.56
UAACAGGGGGCCACGGCAGAAGCGUUCACGUCGCAGCCCCUGUCAGGUUCUGGAGAAUCUGCGAAUUCUGCUGUAUAUCUC	0.84
UAACAGGGGGCCACGGCAGAAGCGUUCACGUCGCAGCCCCUGUCAGGUUCCGGUGAAUCUGCGAAUUCUGCUGUAUAUCUC	0.79
UAACAGGGGGCCACGGCAGAAGCGUUCACGUCGCUGCCCCUGUCAGAUUCUGGAGAAUCUGCGAAUUCUGCUGUAUAUCUC	0.49
UAACAGGGGGCCACGGCAGAAGCGUUCACGUCGCAGCCCCUGUCUGAUUCUGGUGAACCUGCGAAUUCCGCUGUAUAGCGC	0.09
UAACAGGGGGCCACGGCAGAAGCGUUCACGUCGCAGCCCCUGUCAGGUUCUGGCGAAUCUGCAAAUUCUGCUGUAUAUCUC	0.68

Variant	self-cleavage
UAACAGGGGGCCACGGCAGAAGCGUUCACGUCGCAGCCCCUGUCAGGUUACGGCGAAUCUGCGAAUUCUGCUGAAUAUCUA	0.65
UAACAGGGGGCCACGGCAGAAGCGUUCACGUCGCAGCCCCUGUCGGAUUCUGGUGAAUCUGCGAACUCAGCUGUAUAUCUC	0.26
UAACAGGGGGCCACGGCAGAAGCGUUCACGUCGCAGCCCCUGUCGGGUUCUGGUGAAUCUGCGAAUUCUGCUGUAUAUCUC	0.25
UAACAGGGGGCCACGGCAGAAGCGUUCACGUCGCUGCCCCUGUCAGAUUCUGGUGAGUCUGCGAAUUCUGCCGUAUAUCUC	0.72
UAACAGGGGGCCACGGCAGAAGCGUUCACGUCGCAGCCCCUGUCUGAUUCUGGUGAAUCUGCGAAUUCCGCUGCGUAUCUC	0.12
UAACAGGGGGCCACGGCAGAAGCGUUCACGUCGCGGCCCCUGUCAGAUUCUGGUGAAUCUGCGAAUUCUGCUGUACAUCUC	0.64
UAACAGGGGGCCACGGCAGAAGCGUUCACGUCGCUGCCCCUGUCAGAUUCUGGUGAAUCUGCGAGCUCUGCUGUGUAUCUA	0.07
UAACAGGGGGCCACGGCAGAAGCGUUCACGUCGCUGCCCCUAUCAGAUUCAGGUGAAUCUGCGAAUUCUGCUGUAUAUCUC	0.26
UAACAGGGGGCCACGGCAGAAGCGUUCACGUCGCUGCCCCUGUCAGAUUCAGGUGAAUCUGCGUACUCUGCUGUAUAUCUC	0.13
UAACAGGGGGCCACGGCAGAAGCGUUCACGUCGCUGCACCUGGCAGAUUCUGGCGAAUCUGCGAAUUCUGCUGUAUAUCUC	0.13
UAACAGGGGGCCACGGCAGAAGCGUUCACGUCGCUCCCCCUGUCAGGCCCUGGUGAAUCUGCGAAUUCUGCUGUAUACCUC	0.18
UAACAGGGGGCCACGGCAGAAGCGUUCACGUCGCAGCCCCUGUCAGGUUCUGGUGAAUCCGCGAAUUCUGCUGUAUAUCUC	0.21
UAACAGGGGGCCACGGCAGAAGCGUUCACGUCGCAGCCCCUGUCUGAUUCUGGUGAAUCUGCGAAUUCUGCUGCAUAUCUC	0.62
UAACAGGGGGCCACGGCAGAAGCGUUCACGUCGCAGCCCCUGUCAGGUACUGGAGAAUCUGCGAAUUCUGCUGUAUAUCUC	0.07
UAACAGGGGGCCACGGCAGAAGCGUUCACGUCGCUGCCCCUGUCAGACUCUGGUGAAUCUGCGAAUUCUGCUGCAUAUCUC	0.24
UAACAGGGGGCCACGGCAGAAGCGUUCACGUCGCAGCCCCUGUCAGGAGCUGGUGAAUCUGCGAAUUCUGCUGUAUAUCUC	0.05
UAACAGGGGGCCACGGCAGAAGCGUUCACGUCGCAGCCCCUGUCAGGUUCCGGUGAAUCUGCGAAUUCUGCUGUACAUCUC	0.67
UAACAGGGGGCCACGGCAGAAGCGUUCACGUCGCAGCCCCUGUCGGAUUCUGGUGUAUCUGCGAAUCCUGCUGUAUAUCUC	0.13
UAACAGGGGGCCACGGCAGAAGCGUUCACGUCGCUACCCCUGUCAGAUUCUGGUGAAUCUGCGAAUUCUGCUGUAUAUCUC	0.11
UAACAGGGGGCCACGGCAGAAGCGUUCACGUCGCUGCCCCUGUCAGAUUCUGGUGAAUCUGCGAAAUCUGCCGUAUAUCUC	0.27
UAACAGGGGGCCACGGCAGAAGCGUUCACGUCGCAGCCCCUGUCGGGUUCUGGUGAAUCUGCGAAUUCAGCUGUAUAUCUC	0.16
UAACAGGGGGCCACGGCAGAAGCGUUCACGUCGCAGCCCCUGUCAGGUUCUGGUGAAUCUGCGAAUUCUGCUGCAUAUCUC	1.29

From the RNAGym collection of RNA variant scans (doi:10.1093/nar/gkz1192)
